Assay results from article PMC6212790.
The other results are listed elsewhere or left out. At the low end of the ranking the order means little.

target: T1, GST-Rok (full length) (UniProt O34857); test: protein binding microarray; conditions: Rok is a gene silencer of Bacillus subtilis; high values mean tight binding; most listed sequences are background and not binding sites; double strand, one strand shown;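 further: rank score from −0.5 (least bound) to 0.5 (best bound)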
T1 sequence: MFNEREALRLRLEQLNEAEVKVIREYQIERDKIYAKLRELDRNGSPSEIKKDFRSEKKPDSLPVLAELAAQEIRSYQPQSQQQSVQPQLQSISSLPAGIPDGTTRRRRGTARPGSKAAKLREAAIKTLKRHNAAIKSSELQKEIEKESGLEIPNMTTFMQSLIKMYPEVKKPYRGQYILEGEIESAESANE

Sequence	binding signal [E-score]
GCACCGCC	-0.332
AAAAGATA	0.12
ATTGTCGG	-0.0667
GAAGCGAC	-0.161
CTTTCTTC	-0.0764
CCCGTTAG	-0.272
CCTCTTAG	-0.0452
TGCGACAA	-0.108
GGAGAAGA	-0.169
CTATAGAA	0.275
ACAGTCCA	-0.151
GAATGAAC	0.024
AAACTCCC	-0.149
CACCTCGA	-0.2
CAGTCAGA	-0.146
ACTCGTCC	-0.144
CGACCATC	0.0263
GACTGCCA	-0.232
AGCCATAT	0.162
CTACTGCA	0.239
GTAGATTA	0.317
TACCGAAA	0.225
ATAATTGG	0.22
TAAGCAGA	-0.253
ACCCCACG	-0.309

Sequence	binding signal [E-score]
TCTTCACA	0.175
AGGTCCGC	-0.204
AGTTCAGG	0.00951
ACACTCGC	0.0978
GGCTAGTA	0.0598
AGTATTAC	0.26
CCTAAAGG	-0.326
AGACCCAT	-0.031
AGTCGCAG	-0.219
GTTTGAGA	0.00995
CTTAAGGA	-0.228
TGGCGAAA	0.117
GAGATAGC	-0.0175
GGCCTAGA	-0.132
AAGCTTTG	0.0468
CGGTCACC	-0.248
AACAGCGG	-0.153
CGGGCACA	-0.164
CAGACCGA	-0.19
GCTGGACC	-0.221
CCTTGGAC	-0.266
ATCGTCAG	-0.134
ACGACCAG	-0.163
GCTTTATA	0.0907
AGCCCATC	-0.189

Sequence	binding signal [E-score]
GCCCCCGC	-0.351
CTCTCCTC	-0.332
ATGTATCC	0.262
CGGTGCTA	-0.072
GCCAGAGA	-0.126
CACGCACA	0.00624
ATAGGGCG	-0.0648
CGCGTATA	0.213
ACTGGTTC	0.0747
CACGAACG	-0.113
AGCCTTCC	-0.364
GGGCTCAC	-0.254
ACGCGCCA	-0.0487
ACTCCGCA	0.0638
GCGCGGAA	-0.142
ATGTCATA	0.164
AGCTCAGA	-0.0992
AGCAACTG	-0.0274
AACTAAGC	0.0868
CCATCGTA	-0.0738
CACGGATG	-0.194
AAGTGGTA	0.348
AGCGTGCA	-0.0929
ATACCTAG	0.31
AGAGAGCG	-0.279

Sequence	binding signal [E-score]
CTCAAGAA	-0.0423
CGTGGGTA	0.0305
ACAGTGCG	0.00979
ATGCCCAG	-0.37
GAGTGAGA	-0.153
CTCGCTAC	0.044
AAGGCACT	-0.0347
AATAGTCA	0.162
CTAGACAG	-0.0562
CGCTGAAC	-0.134
AACTTTGG	0.00806
ACTAGTCC	0.108
AGATGGTA	0.31
CCCACCAC	-0.324
CTCTGCTC	-0.000994
ATTCACGC	-0.0652
AGTTCAAT	0.0258
ACGGGAGT	-0.187
ATTGACTG	0.17
TATATGCA	0.32
ACAGCGAT	-0.0187
CGTCTCTA	-0.15
AACGAATT	0.325
TAAGGAAA	0.00759
GTATGGAC	0.199

Sequence	binding signal [E-score]
GCGGTCAC	-0.226
ACAACAGT	-0.00181
ACTATGAT	0.218
CCGTTTTA	0.0815
GCAAAACC	-0.161
CACAATTC	-0.0187
AGGCGAGC	-0.153
TAGGTCGA	0.173
GAACGCGC	0.0333
CTCTATCC	-0.158
CCGCCTCA	-0.275
CCCGATAC	0.00567
TAGGAATA	0.242
CGCATGCA	0.0144
ATGACCTC	-0.189
GCCTGGGA	-0.327
ACTGCGTC	-0.0103
ACAGAAAG	0.157
ATAGGGAA	0.128
CGCACCGA	-0.0697
ACCACGAG	-0.083
CATTCAAC	0.058
AATAATTC	0.233
ACAATCTG	0.123
ATACAGCG	0.0286

Sequence	binding signal [E-score]
ATCAATCG	-0.00632
CTCGCCTA	-0.0466
CAGGTCCA	-0.375
AAGAGTTG	-0.0832
AATTTGCG	0.151
GCTGTGCA	-0.129
ACAGGCAT	0.0025
AATCCCCA	-0.251
CCCTACGG	-0.405
GGCCCGCC	-0.437
CACCCTGC	-0.14
CGAGCTAC	0.115
TATACGCA	0.227
GAGGTTAA	-0.0161
ACGTACAG	0.165
CAAACGAA	0.108
CACTGGTA	-0.02
CCACACCC	-0.17
GACCTGGC	-0.314
ACACCTAG	0.0912
ACTTAATG	0.192
CGGCTGAA	-0.0243
CAAACCTG	0.00968
ATGTGGTA	0.204
AAGTTATC	0.24

Sequence	binding signal [E-score]
ACTACAAC	0.293
CGCATGAA	-0.174
GATGACGC	-0.218
CGCGTTGC	-0.26
ATCTGTTA	0.192
AACTGAAA	0.0317
CGTGCGGC	-0.249
CAACCACC	-0.163
CTCAATAA	0.0681
GTTGAAAA	0.108
CCTCCTGC	-0.361
ACTTAGGG	-0.0547
GAGTATTA	0.208
CCGATTCG	-0.0898
AACCATTC	-0.146
ATGTAAGC	0.145
ATCCGCAA	-0.0455
CTAGTAAG	0.151
AGGAGGGC	-0.445
AACGGGTG	-0.105
GGGACATA	-0.242
AATCGTCT	-0.036
